From PubChem BioAssay AID1454 (National Center for Advancing Translational Sciences (NCATS), 2008)
“And” between values parts separate entries of the source, which are not always exact repeats. Equal entries are not always repeated. The campaign covered roughly 130,000 compounds. About 550 (0.42%) were called active. Another 4% or so got no clear call; they are omitted. Calls follow the shape of the dose curve; as a rule, active = well fitted inhibition curve with a large enough effect; inconclusive = small, poorly fitted or top-dose-only effect, or effect the other way; inactive = flat fitted curve, though single readings scatter. The entries are a selection whose mix differs from that of the whole data set. More than one record can exist for a structure, and the calls need not agree.

test: qHTS Assay for Inhibitors of the ERK Signaling Pathway using a Homogeneous Screening Assay; Stimulation with EGF; settings: HEK293-V1b, EGF-stimulated phospho-ERK AlphaScreen; activity change, negative = inhibition: at the top concentration; also: nearly all actives have a fitted effect of over 55% in size;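 as to activity change, negative = inhibition: plate controls were stimulated vehicle wells for no effect and unstimulated vehicle basal for full effect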
Summary of the method: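 In this qHTS, HEK293 cells with stable type-1 vasopressin (V1b) receptor were exposed to compound at 37C for 30 min, stimulated 5 min with EGF at 25 nM, lysed, and probed for phospho-ERK by AlphaScreen.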
Potency is read from the fitted curve at half-maximal effect.

| Compound | activity change, negative = inhibition | Potency |
| --- | --- | --- |
| Oc1ccc(-c2nc(-c3ccc(F)cc3)c(-c3ccncc3)[nH]2)cc1 | inactive: 4.43% | – |
| O=C(NCc1ccccc1)C1=C[C@H](c2csc3ccccc23)C[C@H](OCc2ccc(CO)cc2)O1 | inactive: -5.22% [at 57.5 µM] | – |
| CC1=NN(c2ccccc2)C(=O)/C1=C\c1cn(C)c2ccccc12 | – | active: 14.1 µM |
| O=C(CCCN1C(=O)/C(=C\c2ccccc2)SC1=S)Nc1ccccc1O | inactive: 13.8% [at 57.5 µM] | – |
| COc1cc(/C=N/Nc2nc(-c3ccc(S(=O)(=O)N(C)C)cc3)cs2)ccc1O | – | active: 8.91 µM |
| N#C/C(=C\c1ccc(O)c(O)c1)C(=O)NCCCc1ccccc1 | inactive: -2.78% | – |
| CC(C)OC(=O)C(C)(C)Oc1ccc(C(=O)c2ccc(Cl)cc2)cc1 | – | inactive |
| C[C@@H](CCc1ccc(O)cc1)NCCc1ccc(O)c(O)c1 | – | inactive |
| CC[C@H]1OC(=O)[C@H](C)[C@@H](O[C@H]2C[C@@](C)(OC)[C@@H](O)[C@H](C)O2)C(C)[C@@H](O[C@@H]2O[C@H](C)C[C@H](N(C)C)[C@@H]2O)[C@](C)(OC)C[C@@H](C)C(=O)[C@H](C)[C@@H](O)[C@]1(C)O (some centres undefined) | inactive: 0.137% | – |
| Nc1nc(Cl)nc2c1ncn2[C@@H]1O[C@H](CO)[C@@H](O)[C@H]1O | inactive: -12.8% [at 57.5 µM] | – |
| CCC[C@@H]1C[C@@]1(CCC)[C@@H](NP(=O)(c1ccccc1)c1ccccc1)c1ccc(C(=O)OC)cc1 | inactive: 12.1% | – |
| c1ccc2c(CC3=NCCN3)cccc2c1 | inactive: 6.01% | – |
| Cc1cc(C(=O)N[C@H](c2ccccc2)[C@@]2(C)C[C@@H]2[C@@H](C)C(=O)Nc2ccc3ccccc3c2)n(C)n1 | – | inactive |
| CCN(CC)CC(=O)Nc1c(C)cccc1C | – | inactive |
| COc1cccc2c1C(=O)c1c(O)c3c(c(O)c1C2=O)C[C@@](O)(C(C)=O)C[C@@H]3O[C@H]1C[C@H](N)[C@H](O)[C@H](C)O1 | – | inactive and active: 25.1 µM |
| CCCC[C@H](CC)CN=C(N)NC(N)=NCCCCCCN=C(N)NC(N)=NC[C@@H](CC)CCCC | inactive: 5.38% [at 25.7 µM] | – |
| Cc1cccc(Nc2ncnc3ccc(Br)cc23)c1 | – | active: 1.78 µM |
| COC(CNC(=O)c1ccc2c3c(onc13)-c1ccccc1C2=O)OC | – | active: 35.5 µM |
| CNc1cccc2c1C(=O)c1ccccc1C2=O | – | active: 10 µM |
| CC(=O)O[C@@]1(C(C)=O)CCC2C3C=C(Cl)C4=CC(=O)CC[C@]4(C)C3CC[C@]21C (some centres undefined) | inactive: 11.6% | – |
| O=C(O)/C=C\c1ccc(O)c(O)c1 | inactive: 4.66% [at 25.7 µM] | – |
| CCCc1c(-c2ccc(O)cc2)nn(-c2ccc(O)cc2)c1-c1ccc(O)cc1 | – | inactive |
| Cc1cc(N=Nc2ccc(Cl)cc2)cc(CN2CCOCC2)c1O | – | active: 15.8 µM |
| COc1ccc(/C=C/C(=O)Nc2ccccc2C(=O)O)cc1OC | inactive: 3.55% [at 57.5 µM] | – |
